Laboratory results: article PMC4336329 (PLoS ONE, 2015)
Out of some 310,000 compounds screened, about 14,000 (4.5%) showed an effect of 50% or more. Effects have a minus sign here. Some of the results follow.

molecular target: human ether-à-go-go-related gene (hERG) potassium channel (human, UniProt Q12809); assay: primary screen, population patch clamp on CHO cells stably expressing hERG
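Also: peak tail current of the secondary pulse compared with the same well before compound.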

human ether-à-go-go-related gene (hERG) potassium channel, sequence (Q12809 whole entry, looked up): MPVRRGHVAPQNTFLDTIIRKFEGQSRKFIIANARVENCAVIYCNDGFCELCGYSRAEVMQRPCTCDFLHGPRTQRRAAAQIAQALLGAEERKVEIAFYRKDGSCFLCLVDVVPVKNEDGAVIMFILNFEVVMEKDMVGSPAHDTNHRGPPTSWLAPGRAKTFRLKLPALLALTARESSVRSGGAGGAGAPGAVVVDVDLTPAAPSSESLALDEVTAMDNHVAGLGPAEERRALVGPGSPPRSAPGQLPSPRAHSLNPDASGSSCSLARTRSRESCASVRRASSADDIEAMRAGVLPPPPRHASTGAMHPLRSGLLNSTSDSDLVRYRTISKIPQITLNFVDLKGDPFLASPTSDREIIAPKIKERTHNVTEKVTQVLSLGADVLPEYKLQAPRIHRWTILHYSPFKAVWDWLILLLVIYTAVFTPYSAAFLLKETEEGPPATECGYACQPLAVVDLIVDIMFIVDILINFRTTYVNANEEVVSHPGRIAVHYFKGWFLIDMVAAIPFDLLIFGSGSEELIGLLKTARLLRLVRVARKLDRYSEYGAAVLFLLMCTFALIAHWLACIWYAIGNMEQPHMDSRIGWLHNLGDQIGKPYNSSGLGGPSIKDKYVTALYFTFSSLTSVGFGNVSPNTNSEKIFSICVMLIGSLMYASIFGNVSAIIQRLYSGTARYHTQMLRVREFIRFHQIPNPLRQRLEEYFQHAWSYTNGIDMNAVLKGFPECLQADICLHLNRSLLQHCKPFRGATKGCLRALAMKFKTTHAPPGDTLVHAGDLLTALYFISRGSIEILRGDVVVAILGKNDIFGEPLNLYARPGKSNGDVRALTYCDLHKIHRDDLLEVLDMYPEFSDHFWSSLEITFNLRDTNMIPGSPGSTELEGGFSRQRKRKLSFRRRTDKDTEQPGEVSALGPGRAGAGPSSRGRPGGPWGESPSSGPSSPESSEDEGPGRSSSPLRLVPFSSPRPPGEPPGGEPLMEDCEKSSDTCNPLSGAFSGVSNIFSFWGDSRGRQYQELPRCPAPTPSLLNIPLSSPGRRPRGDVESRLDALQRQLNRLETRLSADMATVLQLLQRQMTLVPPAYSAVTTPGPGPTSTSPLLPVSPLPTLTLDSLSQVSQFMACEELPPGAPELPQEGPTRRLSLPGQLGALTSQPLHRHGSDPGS

Structure (SMILES)	hERG current change (%, negative = inhibition) at 10uM [%]
O=C(CN1CCCC1)Nc1ccc(NC(=O)Nc2ccccc2Cl)cc1	-21.5
C=CCn1c(O)c(C(CC)=NCCN2CCN(C(=S)NC)CC2)c(=O)[nH]c1=O	0.681
Cc1ccc(C(OCC(O)CNCc2ccc(F)cc2)c2ccccc2)cc1.O=C(O)C(=O)O (stereo not shown)	-75.7
O=C(Nc1ccc(F)c(F)c1)c1ccccc1	7.11
CCOC(=O)C(NC(=O)CC)(Nc1ccc(S(=O)(=O)Nc2ncccn2)cc1)C(F)(F)F (stereo not shown)	22.5
Cn1cccc1C1C=C(c2ccc(C(C)(C)C)cc2)Nc2ncnn21 (stereo not shown)	-2.52
Cc1ccc(NC(=O)C(C)OC(=O)c2n[nH]c3ccccc23)cc1 (stereo not shown)	-31.9
Clc1ccc(/C=N/c2c(-c3ccco3)nc3ccccn23)cc1	13
COc1cc(-c2c(-c3ccc4c(c3)OCO4)noc2C)ccc1F	3.58
CC1CN(C(=O)c2cccc(S(=O)(=O)Nc3cc(Cl)ccc3Cl)c2)CC(C)O1 (stereo not shown)	-0.988
Cc1c(=O)n(OCc2ccccc2)c2ccccc2[n+]1[O-]	-10.2
Cc1ccc(C)c(NC(=O)CCN2CCN(c3ccccc3F)CC2)c1	-25.1
Cc1nc(SCCO)c([N+](=O)[O-])[nH]1	21
COc1cc(/C=C/c2ccc3c([N+](=O)[O-])cccc3n2)ccc1OCC(=O)O	2.25
O=C(CSc1nc2ccccc2c(=O)n1CCCN1CCOCC1)c1c[nH]c2ccccc12	-54
CC(=O)c1c(C)[nH]c(C(=O)CN2C(=O)NC(C)(CCC(C)C)C2=O)c1C (stereo not shown)	11.1
O=C(NCc1cccc(C(F)(F)F)c1)c1ccc2c(c1)OCCO2	9.52
Cc1ccc(S(=O)(=O)N2CCC(C(=O)NN3CCCCC3)CC2)cc1	4.16
CCc1ccc(N2CCN(C(=O)c3ccc(OC)c(OC)c3)CC2)cc1	-28.4
CCCn1nc(C(=O)N2CCCc3ccccc32)c2ccccc2c1=O	-4.32
O=C(NCc1ccc2c(c1)OCO2)C1CCC(CNc2c(N3CCCC3)c(=O)c2=O)CC1 (stereo not shown)	15.8
COc1ccc(CN2CCC(C(=O)N3CCN(c4ccccc4F)CC3)CC2)cc1OC	-37

Structure (SMILES)	hERG current change (%, negative = inhibition) at 10uM [%]
CC(C)N(Cc1cnn(C)c1)Cc1nc(Cc2ccccc2Cl)no1	10.8
CC(C)(C)c1ccc(C(=O)Nc2ccc(S(=O)(=O)Nc3cnc4ccccc4n3)cc2)cc1	-45.1
O=C(CSc1nccc(-c2cccs2)n1)Nc1cccc(Cl)c1Cl	3.4
CC(=O)Oc1ccc(-c2ccc(C(=O)OCC(=O)N(C)CC(=O)Nc3ccccc3Cl)cc2)cc1	-68.9
O=C(NC(Cc1c[nH]c2ccccc12)C(=O)N/N=C/c1ccc(Cl)cc1)c1cccs1 (stereo not shown)	5.22
CC(C)=NOc1cc(NC(=O)CCl)cc([N+](=O)[O-])c1	-27.1
Oc1cccc(-n2nnnc2SCc2ccccc2F)c1	7.33
NCCc1c[nH]c2ccccc12	18
O=C(NCCN=C1NS(=O)(=O)c2ccccc21)c1ccccc1	16.6
Cc1ccccc1Cn1ccc(NC(=O)c2nc3ncccn3n2)n1	4.08
Cc1c(C(=O)N(Cc2ccco2)Cc2cccs2)oc2ccccc12	-34.2
NS(=O)(=O)c1ccc(CNC(=O)/C=C/c2cccc(Cl)c2)cc1	-6.94
CCOC(=O)C1=C(C)N(C)C(=S)NC1c1ccc(Cl)cc1Cl (stereo not shown)	9.9
FC(F)(F)c1nc(NCc2ccccc2)c2nnn(Cc3ccccc3)c2n1	12.7
CN(C)c1cccc2c(C#N)ccc(N(C)C)c12	-42.4
CC(C)c1oc(=O)cc2c1[C@@H](O)[C@H]1OC(=O)[C@@]3(C)C[C@@H](O)[C@@H](O)[C@@]2(C)C13 (stereo partly shown)	15.8
O=C(Nc1nc(-c2cc(F)ccc2F)cs1)c1ccccn1	22.6
COc1ccccc1C(=O)NC(=O)COC(=O)c1ccc(Cl)nc1	-3.27
CCOc1ccc(NC(=S)C(C#N)=C2N(C)c3ccccc3N2C)cc1	-38.8
CC1Cc2cc(-c3csc(NC(=O)Cc4ccccc4)n3)ccc2N1S(C)(=O)=O (stereo not shown)	-3.84
COc1ccc(S(=O)(=O)NCc2cccs2)cc1	2.67
CN1C(=O)C(O)(C2OC(C)(C)CCC2=O)c2ccccc21 (stereo not shown)	9.08

Structure (SMILES)	hERG current change (%, negative = inhibition) at 10uM [%]
COc1cccc(C2(CSc3nnc(-c4cc(OC)c(OC)c(OC)c4)o3)OCCO2)c1	-12.2
CCOC(=O)c1c(C)oc2cc(Sc3ccccc3)c(O)c(O)c12	5.79
CC(C)OCC(O)CN1CCNCC1.Cl (stereo not shown)	11.6
COc1cc(NC(=O)CCS(=O)(=O)c2ccc3c(c2)n(C)c(=O)c(=O)n3C)cc(OC)c1	11.2
COc1cccc(C2/C(=C(/O)c3ccc(F)cc3)C(=O)C(=O)N2CCN(C)C)c1 (stereo not shown)	18.1
CCCCN(CC)CCNc1c(NC2CCN(C(=O)OCC)CC2)c(=O)c1=O	5.12
CC(C)C(NC(=O)c1ccc(C(C)(C)C)cc1)C(=O)NCc1ccccn1 (stereo not shown)	0.55
Cc1cc(C)c(C(=O)/C=C/C=C/c2ccccc2)c(=O)[nH]1	8.65
CN(CCOc1ccccc1)CC(=O)Nc1ccc(S(=O)(=O)N2CCCC2)cc1	1.66
CC(O)CNc1nc2c(c(=O)n(Cc3ccc(Br)cc3)c(=O)n2C)n1C (stereo not shown)	-12.6
N#C/C(=C(/O)CO/N=C/c1ccccc1Cl)c1nc2ccccc2[nH]1	19.8
COc1ccc(CN2CCN(C(=O)C3CCC(CNS(=O)(=O)c4ccc(C)cc4)CC3)CC2)c(OC)c1OC (stereo not shown)	-27.5
O=C(NCc1nc2ccccc2[nH]1)C1=C[C@@H](c2ccccc2)C[C@@H](OCCCCO)O1	-46.5
CCCOc1ccc(/C(O)=C2/C(=O)C(=O)N(CCN(C)C)C2c2ccc(OC)c(OC)c2)cc1 (stereo not shown)	14
CCOc1ccc(S(=O)(=O)NCc2ccc3c(c2)OCO3)cc1C	13
Cc1ccc(NC(N)=S)cc1C	3.57
Cn1c(=NC(=O)C2=NNC(=O)CC2)sc2ccccc21	15.2
CN=c1sc2ccccc2n1CC(O)COCc1ccco1 (stereo not shown)	-65.4
COc1cccc(C(=O)NC2CCNCC2)c1	3.79
CC1(CC(=O)NNC(=O)Nc2ccccc2)OCCCO1	-33.6
CCc1ccccc1N1CC(C(=O)Nc2nccs2)CC1=O (stereo not shown)	1.46
CCOc1cc(NC(=S)Nc2cccc(OC)c2)c(OCC)cc1NC(=O)C1CC1	-1.5

Structure (SMILES)	hERG current change (%, negative = inhibition) at 10uM [%]
O=C(COC(=O)C1CC2C=CC1C2)Nc1ccc2c(c1)OC(F)(F)O2 (stereo not shown)	-19.3
CCC(CC)C(=O)NCCc1cc2c(OC)ccc(OC)c2[nH]c1=O	-16.7
O=C(NCC1OCCc2ccccc21)c1ccc(NC(=O)c2ccc(Cl)cc2)cc1 (stereo not shown)	-16.8
COc1cccc(NC(=O)Cn2nnc(C(=O)NCc3cccs3)c2N)c1	18.4
Cc1ccc(C2=NNC3(CCOC(C)(C)C3)S2)cc1 (stereo not shown)	22
CCOC(=O)C1CCCN(C(=O)c2ccccc2SCCOC)C1 (stereo not shown)	6.2
COC(=O)c1ccccc1NC=C1C(=O)OC2(CCCCC2)OC1=O	-1.07
S=C(c1cn(Cc2ccccc2)c2ccccc12)N1CCOCC1	1.49
COc1ccc(C2C(C#N)=C(N)OC3=C2C(=O)CCC3)cc1Cn1nc(C)c([N+](=O)[O-])c1C (stereo not shown)	-13.3
CCn1c(SCC(=O)Nc2cccc(C)n2)nc2c1c(=O)n(C)c(=O)n2C	-23.7
COCCN(C(=O)CCC(=O)Nc1ccccn1)C(C(=O)NC(C)C)c1ccc(Cl)cc1 (stereo not shown)	-5.58
CNC(=O)c1c(NC(=O)c2cccc(C)c2)sc2c1CCC2	15.4
CN(C)/C=C(\C=O)c1c(Cl)cccc1Cl	23.5
Cn1c(NNC(=O)C2CCCCC2)cc(=O)n(C)c1=O	13.4
CCOc1cc(/C=N/NC(=O)CNc2cccc(C)c2)ccc1OC(=O)c1ccccc1	17.3
Cc1ccc(SCC(=O)OC(C)C(=O)Nc2ccc(S(N)(=O)=O)cc2)cc1C (stereo not shown)	22.9
CCCNC(=O)COC(=O)c1cc(C)nc2ccccc12	14.7
COc1ccc(NC(=S)NCc2ccccn2)cc1OC	11.9
O=C1N[C@@H](Cc2ccccc2)C(=O)N1CCN1CCOCC1	16.8
O=C(c1cccs1)N1CCc2ccccc21	-5.59
COc1ccccc1N(CC(=O)NCCN1CCOCC1)S(=O)(=O)c1ccccc1	9.76
Cc1ccc(-c2nnc(CSc3nc(C(C)C)nc4sc(C)c(C)c34)o2)cc1	-0.248
